Measured values as given in the supplement of paper PMC10126150.
Values marked as one replicate rest on one cluster of the flow cell; about a third of the high ones do not repeat.
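Also: ATP exposure 15 min at 22 °C before imaging.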

These sequences were tested on ATP (assay: switch fluorescence ratio, 500 uM ATP over buffer (Cy3 cluster intensity, sum of 5 cycles each) (fold (ratio)); higher = stronger signal-on switching upon ATP binding; sequences stand for … in TCGTCGGCAGCGTCAGATGTGTATAAGAGACAGTTTTTTTTTTTTTTTTTTTTTTTTT…TC). Conditions: aptamer strand: ATP DNA aptamer (quencher-CACCTGGGGGAGTATTGCGGAGGAAGG + anchor), 100 nM annealed; ATP concentration: 500 uM; one replicate.
In short: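 Clusters carrying Cy3-labelled switching strands on a modified Illumina MiSeq flow-cell were annealed to 100 nM quencher-labelled ATP aptamer and imaged in selection buffer. They were imaged again after 15 min with 500 uM ATP at 22 °C, over five buffer/ATP cycles with NaOH stripping and re-annealing in between. For each cluster, the fluorescence ratio is the summed Cy3 intensity of the target cycles divided by that of the buffer cycles, averaged per switch-domain sequence. Clusters outside 100-1000 RFU were left out.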
Sequence AACGGAATTT has a switch fluorescence ratio of 1.1.
In the case of AACGGACATT, the switch fluorescence ratio is reported as 1.21.
Sequence AACGGAGCTG has a switch fluorescence ratio of 1.17.
For AACGGCAATG, the switch fluorescence ratio was 1.2.
AACGGCCGTA gave a switch fluorescence ratio of 1.02.
Work on AACGGGATCG yielded a switch fluorescence ratio of 1.03.
AACGGGCCCA was tested, and the switch fluorescence ratio was 0.975.
Sequence AACGGGCGAC has a switch fluorescence ratio of 1.04.
Sequence AACGGGCTCT has a switch fluorescence ratio of 1.
In the case of AACGGGGAAA, the switch fluorescence ratio is reported as 1.01.
In the case of AACGGGGAAT, the switch fluorescence ratio is reported as 1.01.
AACGGGGTTT was tested, and the switch fluorescence ratio was 1.02.
With AACGGGTTGA the switch fluorescence ratio was 0.995.
Work on AACGGGTTTC yielded a switch fluorescence ratio of 1.02.
For AACGGTAGGG, the switch fluorescence ratio was 1.03.
AACGGTCAAT gave a switch fluorescence ratio of 1.1.
Work on AACGGTTGAG yielded a switch fluorescence ratio of 1.04.
AACGTATGAT showed a switch fluorescence ratio of 1.1.
AACGTCCGAG was tested, and the switch fluorescence ratio was 1.15.
For AACGTCTCCG, the switch fluorescence ratio was 1.1.
Work on AACGTGGCA yielded a switch fluorescence ratio of 0.989.
For AACGTTAAAA, the switch fluorescence ratio was 1.07.
AACGTTTATC was tested, and the switch fluorescence ratio was 1.01.
Sequence AACTAATCTT has a switch fluorescence ratio of 0.994.
Work on AACTACATT yielded a switch fluorescence ratio of 0.989.
With AACTAGTGTG the switch fluorescence ratio was 0.969.
AACTATTATA showed a switch fluorescence ratio of 1.02.
AACTCAATCG was tested, and the switch fluorescence ratio was 0.964.
AACTCCAGGC showed a switch fluorescence ratio of 1.15.
Sequence AACTCGAGAG has a switch fluorescence ratio of 1.
With AACTCGTATG the switch fluorescence ratio was 1.05.
With AACTCTGGCA the switch fluorescence ratio was 1.01.
In the case of AACTGAAGTT, the switch fluorescence ratio is reported as 0.985.
AACTGAATGG showed a switch fluorescence ratio of 1.
AACTGCCGGA was tested, and the switch fluorescence ratio was 1.01.
AACTGGACGT showed a switch fluorescence ratio of 1.02.
AACTGGGCGC gave a switch fluorescence ratio of 1.12.
In the case of AACTGTTGCT, the switch fluorescence ratio is reported as 1.01.
AACTTAAGT showed a switch fluorescence ratio of 0.987.
In the case of AACTTACCCG, the switch fluorescence ratio is reported as 1.48.
With AACTTCCCT the switch fluorescence ratio was 1.05.
AACTTGAGTG was tested, and the switch fluorescence ratio was 1.06.
For AACTTGATGT, the switch fluorescence ratio was 0.999.
AACTTGCTCT showed a switch fluorescence ratio of 1.07.
Work on AACTTGTGAG yielded a switch fluorescence ratio of 1.04.
AACTTTATCA gave a switch fluorescence ratio of 1.01.
AACTTTGCGT was tested, and the switch fluorescence ratio was 0.981.
For AAGAAAGA, the switch fluorescence ratio was 0.937.
AAGAACGGCC gave a switch fluorescence ratio of 1.13.
In the case of AAGAACTCCT, the switch fluorescence ratio is reported as 1.02.
With AAGAAGCGGC the switch fluorescence ratio was 1.04.
For AAGAAGGCAA, the switch fluorescence ratio was 1.09.
Sequence AAGAAGTTAA has a switch fluorescence ratio of 1.03.
AAGAATAGTT gave a switch fluorescence ratio of 0.989.
Work on AAGAATCCGG yielded a switch fluorescence ratio of 0.997.
AAGAATCTAG was tested, and the switch fluorescence ratio was 1.04.
In the case of AAGACAGAAA, the switch fluorescence ratio is reported as 1.02.
AAGACATTAT showed a switch fluorescence ratio of 1.02.
In the case of AAGACGCGGA, the switch fluorescence ratio is reported as 1.
In the case of AAGACTTGAA, the switch fluorescence ratio is reported as 0.996.
AAGAGAAGGA showed a switch fluorescence ratio of 0.949.
For AAGAGCACCT, the switch fluorescence ratio was 1.06.
With AAGAGCATTC the switch fluorescence ratio was 1.08.
Work on AAGAGCCCTT yielded a switch fluorescence ratio of 0.988.
For AAGAGCTATC, the switch fluorescence ratio was 1.07.
AAGAGCTTAA gave a switch fluorescence ratio of 0.935.
In the case of AAGAGGCTAT, the switch fluorescence ratio is reported as 1.01.
AAGAGGGAC was tested, and the switch fluorescence ratio was 1.
Work on AAGAGGGTA yielded a switch fluorescence ratio of 1.01.
For AAGAGTCAA, the switch fluorescence ratio was 1.02.
With AAGATAGGAC the switch fluorescence ratio was 0.989.
AAGATAGTAT gave a switch fluorescence ratio of 0.967.
In the case of AAGATCCTAG, the switch fluorescence ratio is reported as 0.987.
AAGATCCTAT gave a switch fluorescence ratio of 0.95.
For AAGATCTAGG, the switch fluorescence ratio was 0.951.
Work on AAGATGTTCG yielded a switch fluorescence ratio of 1.02.
Work on AAGCAAATGT yielded a switch fluorescence ratio of 1.01.
Sequence AAGCAATGTG has a switch fluorescence ratio of 1.21.
Sequence AAGCACAAAA has a switch fluorescence ratio of 1.48.
AAGCACCTAC gave a switch fluorescence ratio of 1.63.
AAGCACGAAC was tested, and the switch fluorescence ratio was 1.47.
AAGCAGCAGG gave a switch fluorescence ratio of 1.01.
For AAGCATAAAG, the switch fluorescence ratio was 1.06.
Work on AAGCATATAG yielded a switch fluorescence ratio of 1.99.
For AAGCATGGAG, the switch fluorescence ratio was 1.
AAGCCGCTGG gave a switch fluorescence ratio of 1.04.
AAGCCGGACA showed a switch fluorescence ratio of 0.969.
With AAGCCGTGGT the switch fluorescence ratio was 1.01.
Sequence AAGCCTTGTC has a switch fluorescence ratio of 1.11.
AAGCGCAGAT was tested, and the switch fluorescence ratio was 0.988.
Sequence AAGCGCTCGT has a switch fluorescence ratio of 1.02.
AAGCGGCTTT gave a switch fluorescence ratio of 0.907.
For AAGCGTCACG, the switch fluorescence ratio was 1.03.
For AAGCTAAGCG, the switch fluorescence ratio was 0.996.
In the case of AAGCTAATAA, the switch fluorescence ratio is reported as 1.19.
Sequence AAGGACCGTC has a switch fluorescence ratio of 1.05.
AAGGAGGGCT was tested, and the switch fluorescence ratio was 1.
AAGGATTTTC was tested, and the switch fluorescence ratio was 0.994.
Sequence AAGGCCGTTC has a switch fluorescence ratio of 1.02.
AAGGCTAGG gave a switch fluorescence ratio of 0.982.
For AAGGGACTTT, the switch fluorescence ratio was 1.02.
With AAGGGAGGTA the switch fluorescence ratio was 1.01.
Work on AAGGGAGTCC yielded a switch fluorescence ratio of 0.991.
For AAGGGCGGT, the switch fluorescence ratio was 1.01.
With AAGGGCTCTT the switch fluorescence ratio was 0.931.
In the case of AAGGGGCATC, the switch fluorescence ratio is reported as 0.979.
With AAGGGGTCAG the switch fluorescence ratio was 1.01.
Work on AAGGGTCAAT yielded a switch fluorescence ratio of 1.06.
With AAGGGTCACA the switch fluorescence ratio was 1.02.
AAGGGTCGAA gave a switch fluorescence ratio of 1.01.
For AAGGTACAGG, the switch fluorescence ratio was 1.1.
Work on AAGGTATCCG yielded a switch fluorescence ratio of 1.1.
With AAGGTATGAC the switch fluorescence ratio was 1.02.
With AAGGTCAACA the switch fluorescence ratio was 1.01.
Sequence AAGGTCAGCA has a switch fluorescence ratio of 1.02.
With AAGGTCTGAT the switch fluorescence ratio was 0.996.
With AAGGTGACGT the switch fluorescence ratio was 1.03.
Sequence AAGGTGATTT has a switch fluorescence ratio of 1.06.
In the case of AAGGTGCCCA, the switch fluorescence ratio is reported as 1.04.
AAGGTGTTCC was tested, and the switch fluorescence ratio was 1.02.
Work on AAGGTTCCTT yielded a switch fluorescence ratio of 0.979.
With AAGTAAAATG the switch fluorescence ratio was 1.04.
Work on AAGTAATAGC yielded a switch fluorescence ratio of 1.1.
In the case of AAGTAATTCC, the switch fluorescence ratio is reported as 1.13.
AAGTAGAGCT gave a switch fluorescence ratio of 1.05.
With AAGTAGGAGG the switch fluorescence ratio was 1.02.
AAGTAGTACA was tested, and the switch fluorescence ratio was 1.04.
AAGTAGTATC showed a switch fluorescence ratio of 0.996.
For AAGTATTTGT, the switch fluorescence ratio was 0.989.
AAGTCAAAAA showed a switch fluorescence ratio of 1.02.
For AAGTCACGAG, the switch fluorescence ratio was 1.05.
AAGTCACGGA gave a switch fluorescence ratio of 1.07.
AAGTCAGCCA gave a switch fluorescence ratio of 0.973.
AAGTCAGGCA was tested, and the switch fluorescence ratio was 1.06.
With AAGTCATCCA the switch fluorescence ratio was 1.04.
Sequence AAGTCCAACG has a switch fluorescence ratio of 1.02.
AAGTCCATG gave a switch fluorescence ratio of 0.996.
Sequence AAGTCCGCGG has a switch fluorescence ratio of 0.996.
AAGTCCTTCA was tested, and the switch fluorescence ratio was 1.33.
In the case of AAGTCGCAAG, the switch fluorescence ratio is reported as 0.988.
With AAGTCTCAGT the switch fluorescence ratio was 1.01.
With AAGTCTCTTG the switch fluorescence ratio was 0.997.
Sequence AAGTGAGACG has a switch fluorescence ratio of 1.12.
In the case of AAGTGAGGAG, the switch fluorescence ratio is reported as 1.01.
With AAGTGAGTGG the switch fluorescence ratio was 0.971.
With AAGTGCAGAG the switch fluorescence ratio was 0.98.
For AAGTGCCTTA, the switch fluorescence ratio was 1.02.
AAGTGCGCCC gave a switch fluorescence ratio of 1.01.
Sequence AAGTGCGTA has a switch fluorescence ratio of 0.999.
For AAGTGCTAAC, the switch fluorescence ratio was 1.01.
In the case of AAGTGGGAT, the switch fluorescence ratio is reported as 1.02.
With AAGTGGGGCA the switch fluorescence ratio was 1.01.
With AAGTGGTTAA the switch fluorescence ratio was 0.985.
AAGTGTCTAC was tested, and the switch fluorescence ratio was 0.974.
Work on AAGTGTTTGC yielded a switch fluorescence ratio of 1.05.
In the case of AAGTTAAGTG, the switch fluorescence ratio is reported as 0.977.
With AAGTTATCAA the switch fluorescence ratio was 1.02.
In the case of AAGTTCCTTA, the switch fluorescence ratio is reported as 0.993.
AAGTTCTGTG showed a switch fluorescence ratio of 1.06.
Sequence AAGTTCTTTT has a switch fluorescence ratio of 1.02.
With AAGTTGGCCT the switch fluorescence ratio was 0.968.
Sequence AAGTTGGTAC has a switch fluorescence ratio of 1.07.
For AAGTTGTCC, the switch fluorescence ratio was 0.953.
AATAAACCTC was tested, and the switch fluorescence ratio was 1.05.
With AATAAACCTT the switch fluorescence ratio was 2.62.
In the case of AATAAATTAG, the switch fluorescence ratio is reported as 1.06.
AATAACGTCT showed a switch fluorescence ratio of 0.989.
AATAAGGGGT was tested, and the switch fluorescence ratio was 0.98.
With AATAAGTACG the switch fluorescence ratio was 1.24.
In the case of AATAATCATA, the switch fluorescence ratio is reported as 0.942.
Work on AATAATGGTC yielded a switch fluorescence ratio of 1.06.
For AATAATTTGA, the switch fluorescence ratio was 0.961.
AATAATTTGC showed a switch fluorescence ratio of 0.99.
In the case of AATACATGTG, the switch fluorescence ratio is reported as 0.999.
Work on AATACCCCTA yielded a switch fluorescence ratio of 1.15.
For AATACCCGAC, the switch fluorescence ratio was 1.35.
AATACGATTG was tested, and the switch fluorescence ratio was 0.998.
AATACGTCCT was tested, and the switch fluorescence ratio was 1.03.
For AATACTCGCA, the switch fluorescence ratio was 1.22.
AATACTGCTT gave a switch fluorescence ratio of 0.987.
Work on AATACTTCCG yielded a switch fluorescence ratio of 1.54.
For AATAGAGCCT, the switch fluorescence ratio was 1.06.
Work on AATAGAGCGA yielded a switch fluorescence ratio of 0.993.
Work on AATAGATTTA yielded a switch fluorescence ratio of 0.977.
AATAGATTTG showed a switch fluorescence ratio of 0.979.
In the case of AATAGGAAG, the switch fluorescence ratio is reported as 0.929.
Sequence AATAGGATTA has a switch fluorescence ratio of 0.986.
Work on AATAGGCTTA yielded a switch fluorescence ratio of 0.993.
In the case of AATAGGTCGC, the switch fluorescence ratio is reported as 1.01.
AATAGTATCC was tested, and the switch fluorescence ratio was 1.04.
AATAGTGCCA showed a switch fluorescence ratio of 1.02.
AATAGTTTC showed a switch fluorescence ratio of 1.03.
AATATAAGTC was tested, and the switch fluorescence ratio was 1.09.
With AATATAGTAG the switch fluorescence ratio was 0.998.
AATATCCAGG gave a switch fluorescence ratio of 1.28.
In the case of AATATGAAAT, the switch fluorescence ratio is reported as 0.966.
Sequence AATATGCTGT has a switch fluorescence ratio of 0.929.
For AATATGGCGC, the switch fluorescence ratio was 1.02.
For AATATTCAAT, the switch fluorescence ratio was 1.01.
AATATTCCA gave a switch fluorescence ratio of 0.952.
